# In ChEMBL document CHEMBL4888484, “Replenishing the malaria drug discovery pipeline: Screening and hit evaluation of the MMV Hit Generation Library 1 (HGL1) against asexual blood stage Plasmodium falciparum ,using a nano luciferase reporter read-out” (2022):
# Hit rate of the full screen: of about 150,000 compounds, about 540 (0.36%) showed an effect of 50% or more. The list shows a part of the results.
# Test system: Plasmodium falciparum
# Experiment: Primary screen in NF54 nanoGlo assay, in single point, at 2uM, 72h; a lower Z score goes with more inhibition
# Assay type: functional, Erythrocyte
# Conditions: timepoint 72 hour
Structure (SMILES),% Inhibition [%],Z score
O=C(NC1=NN2C(=NC(c3ccccc3)=C[C@H]2c2ccc(F)cc2)N1)c1ccccc1,-11,1.69
O=C(Cn1c(=O)[nH]c2c(-c3ccccc3)c[nH]c2c1=O)NCc1ccccn1,-7,1
O=C(NCc1ccc(OCc2cccnc2)cc1)c1ccc(F)cc1,-1,0.22
Cc1nn(C)c(C)c1-c1ccnc(NCCN2CCCCC2=O)n1,-4,0.59
CCCC1(CCC)NC(=O)N(Cc2csc(N(CC)C(C)=O)n2)C1=O,-22,2.04
CCN(Cc1nnnn1C)c1ccccc1Cl,1,-0.16
O=S(=O)(c1ccc(Cl)s1)N1CCC(c2ccsc2)CC1,-14,1.98
CC(C)[C@H](NC(=O)COc1cccc(-n2cnnc2)c1)c1nc2ccccc2n1C,-6,0.74
CC(C)NC(=O)c1nc(S(C)(=O)=O)ncc1Cl,8,-1.19
Brc1ccccc1-n1cc(CNC[C@H]2CCOC2)nn1,-1,0.19
O=C(Nc1ccncc1)Nc1ccn(Cc2cccnc2)n1,29,-3.87
COc1cc(F)c(CN(C)Cc2cnccn2)c(F)c1,6,-0.91
CCn1cccc(NCc2csc(C)n2)c1=O,-13,1.81
CCCc1noc(CS(=O)(=O)C[C@H](O)c2ccccc2)n1,3,-0.51
CC(=O)N1CC2=Nc3cccc4[nH]cc(c34)[C@H](c3ccc4c(c3)OCO4)C2=C1O,-3,0.49
O=C(NCCS(=O)(=O)c1ccc(F)cc1)c1n[nH]c2c1CCCCC2,-17,2.19
Cc1n[nH]c(C)c1[C@@H]1CCCCCN1C(=O)Nc1ccc(OC(C)C)cc1F,-21,2.44
COc1ccc(CN[C@@]2(CO)CCOC2)cc1OCc1ccccc1,-8,1.17
CCN1CC(=O)N[C@H]2CN(C(=O)CCn3nnnc3C)CC[C@@H]2OCc2cccc(c2)Oc2cccc(c2)CC1=O,4,-0.73
N#CCC(=O)N1CCc2c(F)ccc(F)c21,-12,1.46
Oc1ccccc1CCc1nncn1-c1cccnc1,-6,1.06

Structure (SMILES),% Inhibition [%],Z score
CN(C(=O)N1CCCNC(=O)[C@@H]1Cc1ccccc1)c1ccc(F)cc1,1,-0.16
Cc1nc(C2(O)CCN(C)CC2)n(-c2ccc(Cl)cc2C)n1,-7,1.22
COCCOCC(=O)N1CCC2(CC1)c1[nH]c3ccccc3c1CCN2C,-2,0.32
Cc1cnc(C)c(-c2ccc(C(=O)N(C)Cc3nnc(C)o3)cc2)n1,-8,0.92
CCOC(=O)CCN(C)C(=O)c1nc(-c2ccccc2)cn1C,-1,0.21
CCONC(=O)C1CC(=O)N(C(C)C)C1c1ccc(Cl)c(F)c1 (centres undefined),1,-0.11
Cc1ccccc1N1CCN([C@H]2CCC(=O)N(Cc3ccc(F)cc3F)CC2)CC1,-13,2.31
O=C(Cn1ncc(=O)c2ccccc21)N1CC(S(=O)(=O)N2CCOCC2)C1,-4,0.39
O=C(CCc1ncc(-c2ccc(Cl)cc2Cl)o1)N1CCCC1,-20,3.57
C=CCNc1cc(C)c(F)cc1C(N)=O,-10,1.14
CN(c1ncc(C(=O)NCc2ccccc2F)c(N)n1)C1CCCCC1,-1,0.1
C[C@@H](CNC(=O)c1nnn2c1c(=O)[nH]c1ccccc12)c1ccccc1,-3,0.54
O=C1C[C@H]2CC[C@@H](CN1)N2S(=O)(=O)N1CCCCCC1,-18,1.97
Cc1csc(CN(C)C(=O)N[C@@H](C)COc2ccccc2F)n1,5,-0.93
COCCN(CC(=O)N(Cc1ccc(F)cc1)Cc1cccs1)C(=O)c1ccc(Cl)cc1Cl,3,-0.37
Cc1nn(C)cc1S(=O)(=O)N1CCOc2c(F)ccc(F)c21,-7,0.98
Cc1ccc(C2=C[C@@H](c3ccc(C)cc3)n3nnnc3N2CC(=O)NC2CCCCC2)cc1,-9,0.87
CCOCC(=O)NCCn1nc(-c2ccccn2)cc1C1CC1,-14,1.83
O=C(CCC1CCCC1)NC1CCN(c2cn[nH]c(=O)c2)CC1,-6,0.66
C[C@]1(c2noc(C3CCOCC3)n2)CCCN(C(=O)CCn2ccnc2)C1,-2,0.36
CCC=C(C)C(=O)NCc1nncn1CC,-3,0.37
